Reference: the RNAGym collection of RNA variant scans (doi:10.1101/gad.245936.114)
This sample is rich in variants without activity.

B1: tRNA (parent)
chain: CUCUCGGUAGCCAAGUUGGUUUAAGGCGCAAGACUUUAAUUUAUCACUACGAAAUCUUGAGAUCGGGCGUUCGACUCGCCCCCGGGAGAUUUUUUCCUCGAGCAA

Variants of: B1
Assay: nonsense suppression (GFP-seq) (ratio to wild type); higher = more function; SUP4oc tRNA, yeast GFP reporter sort-seq
Procedure, shortened: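 Each variant's nonsense suppression (GFPSEQ) is a cell-share-weighted bin median GFP/RFP relative to the unmutated parent tRNA. Yeast with genome-integrated tRNA variants from a ~3% random-mutation library, a galactose-driven GFP ochre reporter and RFP were grown in raffinose/galactose medium with 80 mg/L adenine, then sorted into GFP/RFP bins for Illumina sequencing. Variants needed ≥100 reads and ≥30 cells.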

| Variant | nonsense suppression |
| --- | --- |
| G32A G66A | ≤ 0.026 |
| G32A G66U C83A | ≤ 0.026 |
| G32A G67U G69A | ≤ 0.026 |
| G32A G69A | ≤ 0.026 |
| G32A G86C | ≤ 0.026 |
| G32A U35A G61C G78C | ≤ 0.026 |
| G32A U35G | ≤ 0.026 |
| G32A U55A C75A | ≤ 0.026 |
| G32A U55C | ≤ 0.026 |
| G32A U57A | ≤ 0.026 |
| G32A U57G G84C | ≤ 0.026 |
| G32A U63C G67A | ≤ 0.026 |
| G32A U70A C82G | ≤ 0.026 |
| G32A U70C G85A | ≤ 0.026 |
| G32C | ≤ 0.026 |
| G32C A60C | ≤ 0.026 |
| G32C A60G U63C G69A | ≤ 0.026 |
| G32C A60U | ≤ 0.026 |
| G32C A60U U63A G67A | ≤ 0.026 |
| G32C A62G | ≤ 0.026 |
| G32C A62G C80U | ≤ 0.026 |
| G32C A74G U76C G88C | ≤ 0.026 |
| G32C A89G | ≤ 0.026 |
| G32C C34A | ≤ 0.026 |

| Variant | nonsense suppression |
| --- | --- |
| G32C C34A U71G U76A G88U | ≤ 0.026 |
| G32C C56G A60C | 0.275 |
| G32C C56G U58C G59A A60U G78U | ≤ 0.026 |
| G32C C64A | ≤ 0.026 |
| G32C C64G | ≤ 0.026 |
| G32C C75G | ≤ 0.026 |
| G32C C75U | ≤ 0.026 |
| G32C C77G | ≤ 0.026 |
| G32C C80A | ≤ 0.026 |
| G32C C81G | ≤ 0.026 |
| G32C G67C U70C C83A | ≤ 0.026 |
| G32C G86U | ≤ 0.026 |
| G32C G88C | ≤ 0.026 |
| G32C U57A | ≤ 0.026 |
| G32C U57A G69A | ≤ 0.026 |
| G32C U57G A60C | ≤ 0.026 |
| G32C U58A C82G | ≤ 0.026 |
| G32C U71A | ≤ 0.026 |
| G32C U71G | ≤ 0.026 |
| G32C U76G | ≤ 0.026 |
| G32U | ≤ 0.026 |
| G32U A54C | ≤ 0.026 |
| G32U A54C C81G | ≤ 0.026 |
| G32U A54G U63G U70C U71C A74U | ≤ 0.026 |

| Variant | nonsense suppression |
| --- | --- |
| G32U A62C U63C | ≤ 0.026 |
| G32U C34G | ≤ 0.026 |
| G32U C34U | ≤ 0.026 |
| G32U C64A | ≤ 0.026 |
| G32U C72G | ≤ 0.026 |
| G32U C77A | ≤ 0.026 |
| G32U C77G | ≤ 0.026 |
| G32U C80G | ≤ 0.026 |
| G32U C82U | ≤ 0.026 |
| G32U G59C G78C | ≤ 0.026 |
| G32U G59U G61U | ≤ 0.026 |
| G32U G59U G67C G69U | ≤ 0.026 |
| G32U G61A U70G | ≤ 0.026 |
| G32U G65A | ≤ 0.026 |
| G32U G66C | ≤ 0.026 |
| G32U G66U | ≤ 0.026 |
| G32U G69C | ≤ 0.026 |
| G32U G84C | ≤ 0.026 |
| G32U G88A A89C | ≤ 0.026 |
| G32U U35G G88A | ≤ 0.026 |
| G32U U55A C81G | ≤ 0.026 |
| G32U U55C | ≤ 0.026 |
| G32U U55G | ≤ 0.026 |
| G32U U55G A60C | ≤ 0.026 |

| Variant | nonsense suppression |
| --- | --- |
| G32U U55G A62C | ≤ 0.026 |
| G32U U57A G61A G69U U76C | ≤ 0.026 |
| G32U U58G C64G | ≤ 0.026 |
| G32U U63A C79A | ≤ 0.026 |
| G32U U63A C82U | 0.0283 |
| G32U U70G U71A G84A | ≤ 0.026 |
| G32U U76C | ≤ 0.026 |
| A33C A60G C64G | ≤ 0.026 |
| A33C A62C C79G | ≤ 0.026 |
| A33C C34G | ≤ 0.026 |
| A33C C34G G84U | ≤ 0.026 |
| A33C C34U | ≤ 0.026 |
| A33C C56A G65C G67A C68A G73A C77G G88A | ≤ 0.026 |
| A33C C64A | ≤ 0.026 |
| A33C C64A G85U | ≤ 0.026 |
| A33C C64G C77U | ≤ 0.026 |
| A33C C64G C80A | ≤ 0.026 |
| A33C C68A | ≤ 0.026 |
| A33C C68A A89U | ≤ 0.026 |
| A33C C68G | ≤ 0.026 |
| A33C C79A | ≤ 0.026 |
| A33C G61U G66U | ≤ 0.026 |
| A33C G67A U71G | ≤ 0.026 |
| A33C G73A | ≤ 0.026 |

| Variant | nonsense suppression |
| --- | --- |
| A33C G73U | ≤ 0.026 |
| A33C G84A | ≤ 0.026 |
| A33C U35C C64G | ≤ 0.026 |
| A33C U55A C77A | ≤ 0.026 |
| A33C U55A G67C | ≤ 0.026 |
| A33C U55C C56U G66U C79G | ≤ 0.026 |
| A33C U55G C77U | ≤ 0.026 |
| A33C U57C | ≤ 0.026 |
| A33C U57G C64G G88U | ≤ 0.026 |
| A33C U70C | ≤ 0.026 |
| A33C U71G G86A | ≤ 0.026 |
| A33C U76C | ≤ 0.026 |
| A33G A54C C64U | ≤ 0.026 |
| A33G A54U | 0.0526 |
| A33G A60C | ≤ 0.026 |
| A33G A62C | ≤ 0.026 |
| A33G A62G G88C | ≤ 0.026 |
| A33G A74C G85A | ≤ 0.026 |
| A33G A74G C81A | ≤ 0.026 |
| A33G A74U C81A | ≤ 0.026 |
| A33G A87G | 0.0348 |
| A33G C34U | ≤ 0.026 |
| A33G C34U U71A | ≤ 0.026 |
| A33G C56A C68U G88A | ≤ 0.026 |

| Variant | nonsense suppression |
| --- | --- |
| A33G C72A | ≤ 0.026 |
| A33G C77A G88U | ≤ 0.026 |
| A33G C79A G88C | ≤ 0.026 |
| A33G C79U | 0.0403 |
| A33G C81A | ≤ 0.026 |
| A33G C83G | ≤ 0.026 |
| A33G G59A | ≤ 0.026 |
| A33G G59C | ≤ 0.026 |
| A33G G61C | 0.034 |
| A33G G61C C75G | ≤ 0.026 |
| A33G G61U | 0.119 |
| A33G G61U C83G | ≤ 0.026 |
| A33G G66C | 0.0263 |
| A33G G66C G85U | ≤ 0.026 |
| A33G G66C G88A | ≤ 0.026 |
| A33G G66U | ≤ 0.026 |
| A33G G67U U76A A87C | ≤ 0.026 |
| A33G G69A C81U | ≤ 0.026 |
| A33G G69C | ≤ 0.026 |
| A33G G78C | ≤ 0.026 |
| A33G G84U | 0.222 |
| A33G G85C | 0.0351 |
| A33G G86C | 0.0374 |
| A33G G88U | ≤ 0.026 |

| Variant | nonsense suppression |
| --- | --- |
| A33G U35A U58A | ≤ 0.026 |
| A33G U55A G78U | ≤ 0.026 |
| A33G U55G G65C G73A G85C A87C | ≤ 0.026 |
| A33G U55G G69C G78C | ≤ 0.026 |
| A33G U57G G65A U76A | ≤ 0.026 |
| A33G U57G U63C | ≤ 0.026 |
| A33G U58A | ≤ 0.026 |
| A33G U58A A87G | ≤ 0.026 |
| A33G U58A C64G G69C G78C | ≤ 0.026 |
| A33G U58G G67A C81A | ≤ 0.026 |
| A33G U63C | 0.11 |
| A33G U63C C64G | ≤ 0.026 |
| A33G U63G C83U | ≤ 0.026 |
| A33G U70A | ≤ 0.026 |
| A33G U70A C77G | ≤ 0.026 |
| A33U A60U | 0.204 |
| A33U A60U G66C | ≤ 0.026 |
| A33U A60U G67U | ≤ 0.026 |
| A33U A62U G66C | ≤ 0.026 |
| A33U C34U G61A C64A | ≤ 0.026 |
| A33U C56G A87U | ≤ 0.026 |
| A33U C56U | ≤ 0.026 |
| A33U C56U C81G | ≤ 0.026 |
